# Source: the supplement of paper PMC11417369
# ± gives the standard deviation of the averaged measurements. The list shows a part of the results.
# Tested on: PfAP2-I AP2 domain 3 (GST-tagged)
# Experiment: gcPBM binding intensity (ln(normalized median fluorescence intensity)); higher = stronger DNA binding
# Method in brief: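 GST-tagged P. falciparum DNA-binding domains produced in E. coli were incubated for 1 h on an Agilent 4 × 180k array of primer-extended double-stranded 36-bp intergenic genomic probes with negative controls. Binding intensity is the highest Masliner-normalised natural-log median intensity across replicate spots of either probe orientation, with bound protein detected by Alexa488 anti-GST antibody at 488 nm.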
row,Sequence,gcPBM binding intensity (ln)
1,AATAAAATAAATATATGTACATATATATAACCATTA [XGTACX_site5549],7.59 ± 0.38
2,TTGACATATAAGATATGTACTAATACACACACATAT [XGTACX_site1904],7.92 ± 0.42
3,AAATAATAAAACAACACACAAATAGTTAAAATAGAA [CACACA_site5007],7.82 ± 0.54
4,ACATTCTATATATACACACATACATAATAAAGAAAG [CACACA_site2771],8.05 ± 0.45
5,TTTTAATGATATATGAGTACACATTGTTTTTTATAA [XGTACX_site1072],7.86 ± 0.41
6,ATATAATGATGGAAAAGAAAAGAAATAAAAAAAAAA [CACACA_negctrl_site1170],7.82 ± 0.83
7,AAATGGTAAGAAAATAAATAAAGTTCTACCACATAA [CACACA_negctrl_site1542],7.93 ± 0.52
8,ATATATATATATATATATATATATGTTTGATTTTTT [XGTACX_negctrl_site98],9.22 ± 0.49
9,ATTTTTCTTTTATTAACACACATATAAATAAATACA [CACACA_site2876],8.07 ± 0.52
10,TAGAAAGAATATAATTGTACAAATGTTGATAGATAA [XGTACX_site7259],8.07 ± 0.52
11,TATAAACCATAATTAACACACAAAATAAGTTACATA [CACACA_site3227],7.64 ± 0.6
12,ATAATAATAAAAATTATACATAAGTATATGCACATA [XGTACX_negctrl_site583],9.78 ± 0.42
13,TTTTGCTTTTTTTTTCTTTTTTGTTTTATATATATT [CACACA_negctrl_site103],7.5 ± 0.64
14,ACATATGGTATTTAAACACACAAAAAAGAAAGAAAA [CACACA_site991],7.75 ± 0.76
15,CCACATTAAAAAAAAACACACATATATTATATATAT [CACACA_site1155],8.46 ± 0.51
16,AAAATGACATAATGGGGAATAGACATATACATAAAT [CACACA_negctrl_site1669],7.73 ± 0.83
17,GTTACAGAGAATGTTGTGCACATATCAATAATATAT [GTGCAC_site9671],10.44 ± 0.064
18,AATACATGAATATGTAGTACAGAAAAAAAAAATATA [XGTACX_site1945],7.89 ± 0.6
19,TATATATATATATATATTTTAAATGATATAAATGGT [TGCATGCA_negctrl_site152],9.26 ± 0.63
20,AATTAATTAAATTAATGTACACATATATTTGTATTC [XGTACX_site2341],7.96 ± 0.19
21,TCCCTTCATCTTTTATGTACTAAAAAATTGAATAAT [XGTACX_site2172],8.04 ± 0.26
22,TAATACGAATGAGGCACACACCTAGTATACATGCTT [CACACA_site6438],7.79 ± 0.7

row,Sequence,gcPBM binding intensity (ln)
1,AATTAAAATTTTTGAAGTACACTCAAAATAAGTTAT [XGTACX_site4490],7.95 ± 0.092
2,AATTAATGGCTAAAGGTGCACAATATATATATTACA,11.3 ± 0.19
3,AAAATAAAAAAAAACACACACATACAAGCATATATA [CACACA_site1585],7.52 ± 0.55
4,AAAAAAAAATTTAAGGGTACATACAAATATATATAT [XGTACX_site5078],8.81 ± 0.085
5,TGGAATAATCCGCGTACACACATATATATATTAAGA [CACACA_site4253],8.31 ± 0.042
6,TTATATTCTAGAGACACATGCGATTTTTTATTTTAT [TGCATGCA_site649],7.61 ± 0.69
7,AATTAACCCTAATTTTGTACATATTCCTTTTCTCAT [XGTACX_site46],7.92 ± 1
8,AATAAAAATAGGAATACGCACACGATGATTAATTTA [CACACA_site1836],7.88 ± 0.52
9,TATACCACACGATATACACACTTGTAGACATCTTTT [CACACA_site6232],7.76 ± 0.64
10,GTTACTATGATTAATGCATGCAAATACCAAAAAAAA [TGCATGCA_site590],8.54 ± 0.71
11,TATTTTTATTGGTACTGTACCTATTTAGAAATACAT [XGTACX_site6663],7.99 ± 0.19
12,ATGATTTCATTTGAGAGTACGTAAAAATAATACGTA [XGTACX_site4958],7.54 ± 0.38
13,TTTGCCATATGACACACACACATGTAAACCCCCTTT [CACACA_site6873],8.84 ± 0.042
14,TAATACAAAAACAATGTTCTTTCAAACATAAACATA [CACACA_negctrl_site1628],7.28 ± 0.41
15,TATTTATAAAAAAATACATGCATTTTTTTTTTTTTT [TGCATGCA_site65],8.26 ± 0.54
16,TGTTAATTCTTAAGAATTTCCATAATTTCTTCTTTT [CACACA_negctrl_site1065],7.35 ± 0.57
17,TATATATATATATATTTTTTTTTTTTATGCACATGG [CACACA_negctrl_site1573],10.3 ± 0.53
18,TTTTTTTTTTTGAAATGTACATTCCAAAAACTGATA [XGTACX_site1495],8.04 ± 0.84
19,CTTTTGAACAGTTCATGTACTCAATTTTTTAATAGT [XGTACX_site6498],7.73 ± 0.31
20,TAATACCTATGGTATAGTACGTATTATTTTATAGAG [XGTACX_site2078],7.5 ± 0.39
21,TATTAGAACATATATGCATGCAATAGATATTCCAAT [TGCATGCA_site297],8.02 ± 0.99
22,TATGTATAATTTCATTGTACTTTTGATATTATCATA [XGTACX_site280],7.43 ± 0.31

row,Sequence,gcPBM binding intensity (ln)
1,ATATCATTTTCTAGCACACACATTGTTATTACCTTG [CACACA_site902],8.38 ± 0.68
2,AGTCTGAATAAAATTACACACATATACAGATATATA [CACACA_site5054],7.73 ± 0.44
3,TTTTTTTAAATATACACACACATTTATACAGATATA [CACACA_site5811],7.96 ± 0.49
4,TTTCTAAAAATAAGAACACACACATATAAGCATATA [CACACA_site8714],7.93 ± 0.33
5,ACTGCGTTTTTACACGCGCACTGCAATGAACAATAT,8.47 ± 0.48
6,TATGTAACAAAAAAAAGTACACATATATATAGTGTA [XGTACX_site7772],7.985 ± 0.007
7,AAGATAATCACAAAATGTACAGGAAATATGACAACC [XGTACX_site3607],8.26 ± 0.73
8,TTTTCTAAATTAATAATACACACTTGCTAAAATCAT [CACACA_site3207],7.78 ± 0.56
9,AAGAAAAAGGAACGGAAAAACAAACAAGGGGCCCAA [TGCATGCA_negctrl_site4],7.69 ± 0.91
10,AATGGTATAAACAATACACACATAATATATATATTG [CACACA_site4997],7.61 ± 0.63
11,AGTGGTGTTAAATGTTGTACGATTTTGTGTTATTCG [XGTACX_site178],8.36 ± 0.41
12,ATTTAAGCATTATTTTGTACGAAAATAAAAAAATGA [XGTACX_site6958],7.91 ± 0.5
13,ATATAAAAAAATAAAACACACACATATATATTATAT [CACACA_site8909],7.8 ± 0.5
14,AAAGGAAAATGTGTAAAAAGAAATGCTAGGTATATA [GTGCAC_negctrl_site699],7.77 ± 0.83
15,ATATATATATAATATAGTACGTATAATATATGAATC [XGTACX_site4385],8.78 ± 0.071
16,TATAATGCTCTTCTTTGTACATATTATGATTATATT [XGTACX_site2332],8.53 ± 0.26
17,AAAAAAAAAAAAAACACACAAATCATAAATAAATAT [CACACA_site6362],8.02 ± 0.4
18,TAATAGTATATAAAAAGTACATAATAAGATATGAAA [XGTACX_site1000],7.76 ± 0.63
19,AAAAAAAAAATTGAAAGTACAAATATGTATTATATA [XGTACX_site2455],7.47 ± 0.53
20,TAAAATATGTCATGTGGTACATGAATAGCTTTTATT [XGTACX_site3809],7.58 ± 0.47
21,ATTATGTGCCAATACACACACACATATATATATATA [CACACA_site468],9.265 ± 0.049
22,TTTAAATATTACATATGTACTTATAAATATATATAT [XGTACX_site1284],8.71 ± 0.11

row,Sequence,gcPBM binding intensity (ln)
1,AAGGAATAGGCATATACACACAGGTACAGATATATA [CACACA_site4402],7.86 ± 0.57
2,ACTACGTGGATTAGTTCAAGGGAACACGTCCTATAC [CACACA_negctrl_site1427],7.85 ± 0.65
3,CAACAAAAGTTATTTACACACAAAAGGCAAGGAAAT [CACACA_site7013],8.2 ± 0.81
4,ACTAAACGAATAAATTGTACAAAGAAATATATTCAT [XGTACX_site6766],7.83 ± 0.54
5,ATATTTCATTTTTGTACACACAACGTTGGAGGGTTT [CACACA_site3043],8.09 ± 0.63
6,TAAAAAATTACATATTGTACAGGCAAAATTACACAT [XGTACX_site1152],7.81 ± 0.64
7,AAAGGAAATAAAAACGCACACAGAAATAATATCTAT [CACACA_site457],7.99 ± 0.64
8,TCATATAAATACACGTGTACATATATATATTACAGT [XGTACX_site1954],7.96 ± 0.49
9,AATATAAAAAATAGTTGTACTATATTTAAATATGAC [XGTACX_site2937],7.88 ± 0.22
10,AGTTTGCATATGGAAGTGCATTACCTTGAACATCAT,11.2 ± 0.38
11,AAAAAATATATATGCACACACAAAAAAACAAATTAA [CACACA_site1278],9.27 ± 0.3
12,AACTCATAAAATAATGGTACACAAAAAAAATAAATA [XGTACX_site7648],7.91 ± 0.5
13,TTAGGCAAGGCGGGGGGTACGTTTTTATATAATTAT [XGTACX_site8029],10.7 ± 0.3
14,TTAGATTTATAAGTGTGTACGTAAAATACTTAATAA [XGTACX_site8246],7.98 ± 0.31
15,CAAGGAACCAGACACACACACATAAATGTATTTATA [CACACA_site6491],7.68 ± 0.61
16,TTTTTTTTTTTCTTTTGTACGTATAAAATTATATAA [XGTACX_site2453],8.15 ± 0.67
17,TTTTTATCTAATCTAATATTATATTATACATATAAT [XGTACX_negctrl_site275],7.54 ± 0.73
18,TGTGTGTGCTTATTTTGTACATATTAGGTAAATATT [XGTACX_site6329],8.38 ± 0.18
19,TTTATGGAATAATCACGTACACACAAGAAAAAAAAA [XGTACX_site985],8.29 ± 0.61
20,TACATACATACATACACACATACATATGTATATATA [CACACA_site2480],8.89 ± 0.94
21,TAATGCCATAATACGTGTACTTAATATATTAGAACA [XGTACX_site5809],8.06 ± 0.57
22,CTCAAATGTTATTGTAGTACCTAAAAAATATATTCT [XGTACX_site1970],7.59 ± 0.49
